{"source": "patent US20030082736A1", "about": "(IMMUNEX, published 2003)", "binders": {"B1": {"name": "125I-labeled FLAG-TNF (recombinant human TNFα fusion protein containing a hydrophilic octapeptide at the N-terminus) (ligand)", "chain": "not shown", "modifications": "radioiodinated (125I, IODO-GEN)", "notes": "also called 125I-TNF"}}, "biological_target": "T1, human TNF-R (full length, clone pCAV/NOT-TNF-R) expressed on COS-7 cells (human, UniProt P20333 23-461)", "T1 construct": "also called huTNF-R; recombinant TNF receptor", "T1 sequence": "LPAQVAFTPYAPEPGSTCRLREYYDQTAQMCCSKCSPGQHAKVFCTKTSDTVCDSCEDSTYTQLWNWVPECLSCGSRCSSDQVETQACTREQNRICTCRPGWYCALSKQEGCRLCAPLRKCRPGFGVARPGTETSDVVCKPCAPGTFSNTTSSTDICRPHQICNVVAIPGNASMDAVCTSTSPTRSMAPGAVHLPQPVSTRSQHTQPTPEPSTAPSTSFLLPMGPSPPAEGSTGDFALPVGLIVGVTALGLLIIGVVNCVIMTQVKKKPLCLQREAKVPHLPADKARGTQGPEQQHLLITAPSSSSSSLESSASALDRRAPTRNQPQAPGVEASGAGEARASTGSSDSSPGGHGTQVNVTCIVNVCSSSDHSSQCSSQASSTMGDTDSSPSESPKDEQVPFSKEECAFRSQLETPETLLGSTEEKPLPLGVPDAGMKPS", "test": "plate binding and autoradiography on transfected COS-7 cell monolayers; the pool was narrowed to a single clone", "data": [{"binder": "B1", "values": [{"measurement": "binding result", "value": "binds"}]}]}
